Positions count from the first letter of the chain named. Where two headings read alike, the source gives them in different places.
T1: cynomolgus monkey GPRC5D (cynomolgus monkey, UniProt Q9NZD1 1-343 (human entry))
T1 construct: On transfected CHOK1 cells; also called cyno-GPRC5D; Cynomolgus monkey GPRC5D-CHOK1 cell line
T1 chain: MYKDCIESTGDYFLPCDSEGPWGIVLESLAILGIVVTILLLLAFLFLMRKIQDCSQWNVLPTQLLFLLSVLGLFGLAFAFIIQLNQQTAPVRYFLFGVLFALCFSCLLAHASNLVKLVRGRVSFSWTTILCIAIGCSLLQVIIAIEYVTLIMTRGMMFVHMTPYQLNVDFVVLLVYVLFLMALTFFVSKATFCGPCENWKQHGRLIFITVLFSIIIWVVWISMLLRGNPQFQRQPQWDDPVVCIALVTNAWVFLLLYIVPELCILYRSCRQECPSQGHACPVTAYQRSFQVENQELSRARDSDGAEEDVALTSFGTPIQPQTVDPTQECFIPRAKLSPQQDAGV

B1: HHC78 IgG1 (Fc fusion)
chain: QLQLVESGGGLVQPGGSLRLSCAGSGLFFASSDMSWFRQPPGKERELVAEITSVGNNIKYADSVEGRFTISRDNAKSTVYLQMNSLKPEDTAVYYCSARRRVRYWGQGTQVTVSSGGGGS[letters of human IgG1 Fc not shown]
notes: Heavy chain antibody: VHH - GGGGS - human IgG1 constant region; also called llama-derived anti-GPRC5D chimeric antibody; parent antibody
B2: HHC78-H4 IgG1 (Fc fusion)
chain: B1 chain with L2V, L11V, G24A, P40A, E44G, A75S, S77N, K87R, P88A, Q110L
notes: also called humanized llama-derived anti-GPRC5D antibody; GPRC5D VHH

Key:
human GPRC5D [1] = target: T2, human GPRC5D (human, UniProt Q9NZD1 1-345); assay: flow cytometry, NCI-H929 cells
T2 construct: On transfected CHOK1 cells; also called Human GPRC5D-CHOK1 cell line; Human GPRC5D CHOK1

human GPRC5D [2] = target: T2, human GPRC5D; assay: flow cytometry, human GPRC5D-CHOK1 cells
cynomolgus monkey GPRC5D [3] = target: T1, cynomolgus monkey GPRC5D; assay: flow cytometry, cynomolgus GPRC5D-CHOK1 cells
cynomolgus monkey GPRC5D [4] = target: T1, cynomolgus monkey GPRC5D; assay: flow cytometry, cynomolgus GPRC5D-CHOK1 cells

T2 sequence (Q9NZD1 whole entry): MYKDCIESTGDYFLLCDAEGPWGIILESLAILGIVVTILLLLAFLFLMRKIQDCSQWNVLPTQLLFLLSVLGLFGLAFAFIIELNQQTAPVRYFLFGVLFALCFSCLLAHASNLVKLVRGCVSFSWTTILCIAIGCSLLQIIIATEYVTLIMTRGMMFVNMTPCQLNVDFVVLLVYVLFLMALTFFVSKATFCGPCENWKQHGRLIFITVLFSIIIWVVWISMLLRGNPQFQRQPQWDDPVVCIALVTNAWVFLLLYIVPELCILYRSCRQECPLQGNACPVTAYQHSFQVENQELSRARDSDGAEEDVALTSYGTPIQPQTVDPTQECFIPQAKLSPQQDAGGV

Row | EC50 (human GPRC5D [1]) | EC50 (human GPRC5D [2]) | EC50 (cynomolgus monkey GPRC5D [3]) | EC50 (cynomolgus monkey GPRC5D [4]) | Binder
1 | 2.53 nM | 0.79 nM | 0.98 nM | 9.22 nM | B1
2 | 1.18 nM |  |  | 8.68 nM | B2
